Source: the supplement of paper PMC12217912
This is one part of the list. The full chains were built here from the parent and the listed change. Inactive controls read about 0.05.

B1: TEV protease; numbered along this chain (parent)
chain: MGESLFKGPRDYNPISSSICHLTNESDGHTTSLYGIGFGPFIITNKHLFRRNNGTLVVQSLHGVFKVKDTTTLQQHLVDGRDMIIIRMPKDFPPFPQKLKFREPQREERICLVTTNFQTKSMSSMVSDTSCTFPSGDGIFWKHWIQTKDGQCGSPLVSTRDGFIVGIHSASNFTNTNNYFTSVPKNFMELLTNQEAQQWVSGWRLNADSVLWGGHKVFMVKPEEPFQPVKEATQL

Variants of: B1
Assay: raw area under fraction-flipped curve 0-4 h after induction (AUC4h, not background-subtracted), DNA-recorder readout of cleavage of the substrate (dimensionless); higher = more cleavage of the substrate by the protease variant
Conditions: temperature: 34 °C; time window: 0-4 h after rhamnose induction
Method: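 In vivo DNA recorder in E. coli TOP10(DE3) ΔrhaA at 34 °C. Each TEVp single-site mutant (parent TEVp 0) is paired with a single-site variant of the 7-mer TEVs (canonical ENLYFQ|S). The substrate sits between flexible linkers in a Bxb1-sfGFP-TEVs-SsrA fusion, so cleavage stabilises Bxb1 and speeds flipping of a recombination array, read by NGS. The value is the raw area under the fraction-flipped curve over 0-4 h after rhamnose induction (AUC4h), with ≥20 reads per time point. It is not background-subtracted; inactive controls average about 0.047.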
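Note: Bxb1 expression induced with 0.2% (w/v) L-rhamnose at OD600 near 0.5, cultures sampled hourly, flipped fraction per protease–substrate barcode pair counted by paired-end Illumina sequencing.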

Row | Variant | area with substrate EALYFQS | area with substrate ECLYFQS | area with substrate EDLYFQS | area with substrate EELYFQS | area with substrate EFLYFQS | area with substrate EHLYFQS | area with substrate EILYFQS | area with substrate EKLYFQS | area with substrate ELLYFQS | area with substrate EMLYFQS | area with substrate EPLYFQS | area with substrate EQLYFQS | area with substrate ERLYFQS | area with substrate ESLYFQS | area with substrate EWLYFQS | area with substrate EGLYFQS | area with substrate EVLYFQS | area with substrate ETLYFQS | area with substrate EYLYFQS
1 | L77H | 0.0571 | 0.0623 | 0.0639 | 0.079 | 0.11 | 0.0677 | 0.0692 | 0.0647 | 0.056 | 0.0677 | 0.0701 | 0.06 | 0.0655 | 0.0513 | 0.0784 |  |  |  | 
2 | L77I | 0.149 | 0.0907 | 0.0981 |  | 0.0889 | 0.107 | 0.0796 | 0.0839 |  | 0.0887 | 0.0939 | 0.0899 |  | 0.0898 | 0.0846 | 0.0615 | 0.092 |  | 
3 | L77Y | 0.0753 | 0.0567 | 0.074 | 0.052 |  |  | 0.0619 | 0.0599 | 0.0606 | 0.0532 | 0.0447 | 0.0566 | 0.0625 | 0.0526 |  | 0.0583 | 0.0641 | 0.0664 | 0.0625
4 | V78P | 0.0709 | 0.0786 | 0.0843 |  | 0.0821 | 0.0959 | 0.0596 | 0.0804 | 0.0695 | 0.0805 | 0.0858 | 0.0912 | 0.0848 | 0.0704 | 0.0742 | 0.0602 | 0.0678 | 0.0619 | 0.0764
5 | V78W | 0.0837 | 0.0679 | 0.115 | 0.107 | 0.0684 |  | 0.0605 | 0.0746 | 0.0557 | 0.0703 | 0.0673 | 0.0692 | 0.0713 | 0.0617 | 0.0732 |  | 0.0554 |  | 0.0475
6 | V78Y | 0.0838 | 0.0703 | 0.088 | 0.0783 |  | 0.0758 | 0.0746 |  |  |  |  |  | 0.0701 | 0.0638 | 0.0603 | 0.0613 |  |  | 
7 | R81C | 0.0925 | 0.0955 | 0.0762 | 0.0704 |  | 0.079 | 0.0937 | 0.0953 | 0.0782 | 0.101 | 0.108 | 0.0933 | 0.0981 | 0.0909 | 0.113 | 0.0726 | 0.0665 | 0.0912 | 
8 | D82K | 0.0546 | 0.0514 | 0.0597 | 0.0663 |  | 0.0532 |  | 0.0355 |  | 0.0498 | 0.0843 | 0.0613 | 0.0978 | 0.0491 | 0.0581 |  | 0.0553 | 0.0836 | 
9 | D82N | 0.0535 | 0.065 | 0.0631 | 0.0568 |  | 0.0599 | 0.0631 | 0.0515 | 0.0304 | 0.0561 | 0.0706 | 0.0529 | 0.0594 | 0.0569 | 0.0554 | 0.0413 | 0.0458 |  | 0.0876
10 | M83D | 0.0468 | 0.0578 | 0.065 | 0.0567 |  | 0.0379 | 0.0242 | 0.0501 |  | 0.0652 | 0.0565 | 0.0546 | 0.0607 | 0.0488 | 0.0568 | 0.0756 |  | 0.0348 | 0.0465
11 | I84E | 0.066 | 0.06 | 0.0977 | 0.0731 |  | 0.0409 | 0.0408 | 0.0632 | 0.0571 | 0.0628 | 0.0527 | 0.062 | 0.056 | 0.0541 | 0.0499 | 0.0539 | 0.0783 | 0.0436 | 0.052
12 | I84G | 0.0504 | 0.061 | 0.0872 | 0.0649 |  |  | 0.051 | 0.0691 | 0.0596 |  | 0.064 | 0.0887 | 0.0636 | 0.0735 |  | 0.0759 | 0.0617 |  | 0.0574
13 | I85R | 0.0693 | 0.0544 | 0.0384 |  | 0.0717 | 0.0633 | 0.0581 | 0.0455 | 0.0417 |  | 0.051 | 0.0572 | 0.0575 | 0.0651 | 0.0601 |  |  |  | 0.056
14 | I86Q | 0.049 | 0.0356 | 0.0366 | 0.0428 |  | 0.0389 | 0.0488 | 0.0266 |  | 0.0579 |  | 0.0515 | 0.0379 | 0.0419 | 0.0349 | 0.0385 |  | 0.0373 | 
15 | I86V | 0.112 | 0.0923 | 0.119 | 0.122 | 0.091 | 0.065 | 0.0768 |  | 0.0859 | 0.172 | 0.0779 | 0.123 | 0.0814 | 0.0955 | 0.0739 |  | 0.079 | 0.115 | 
16 | M88A | 0.103 | 0.104 | 0.145 |  | 0.118 |  | 0.0654 |  |  |  | 0.134 | 0.105 |  | 0.0925 | 0.0899 |  | 0.0776 | 0.129 | 0.0977
17 | P89N | 0.137 | 0.075 | 0.0946 |  |  | 0.0825 | 0.0647 | 0.0796 | 0.0696 | 0.0962 | 0.134 | 0.0744 | 0.0987 | 0.0817 | 0.0755 | 0.0757 | 0.0787 |  | 
18 | P89S | 0.11 | 0.0773 | 0.0856 | 0.0992 | 0.0869 |  | 0.0883 |  | 0.0739 | 0.0853 |  | 0.0908 | 0.0938 | 0.0769 |  | 0.0653 | 0.0783 |  | 0.0875
19 | K90W | 0.129 | 0.105 | 0.0989 | 0.112 |  | 0.0979 | 0.0776 | 0.0806 | 0.0831 | 0.0779 | 0.137 | 0.12 |  | 0.114 |  | 0.0818 | 0.0908 |  | 
20 | F92C | 0.108 | 0.0833 | 0.125 | 0.101 |  |  | 0.0963 |  |  | 0.127 | 0.0977 | 0.113 | 0.0842 | 0.11 | 0.0926 | 0.105 | 0.0906 |  | 
21 | P93M | 0.14 | 0.1 | 0.127 |  | 0.087 |  |  | 0.123 |  |  |  | 0.11 | 0.112 | 0.101 | 0.0936 |  | 0.124 | 0.134 | 0.127
22 | K98A | 0.12 | 0.0867 | 0.134 | 0.125 | 0.141 | 0.0995 | 0.0915 | 0.101 |  | 0.1 | 0.116 | 0.126 |  |  | 0.0866 | 0.0859 | 0.102 | 0.125 | 0.108
23 | K98C | 0.135 | 0.0761 | 0.109 | 0.111 | 0.106 |  | 0.082 | 0.0995 | 0.0871 | 0.119 | 0.113 | 0.107 | 0.0903 | 0.109 |  | 0.0928 | 0.0808 |  | 0.101
24 | K98L | 0.0783 | 0.104 | 0.125 |  | 0.0916 |  | 0.0932 | 0.102 | 0.123 | 0.154 |  | 0.134 | 0.0831 | 0.0951 |  | 0.119 | 0.105 |  | 
